# Measured values as given in the RNAGym collection of RNA variant scans (doi:10.7554/elife.90254).
# Read counts are not given, so values of variants with three or more changes are uncertain.
# B1: LINE1-mini (parent)
# chain: GGCAGAGCUCAACACAGCGUGGCAAAGUGGCUGUGGCUAGACUGCC
# Variants of: B1
# Assay: self-cleavage, relative activity (ratio to wild type); higher = more cleavage; in vitro, sequencing; the parent is a self-cleaving ribozyme
row,Variant,self-cleavage
1,C15U G21U G29U,1.23
2,C15A U20A U28G G33U U34G,0
3,C15U C37G G44U,0.24
4,A16G C18U A26C G30C,0.09
5,C15U C18U G19A A24C G27A G33U,0.25
6,C15G G27C C45U,0.04
7,C15U C42G G44C C45U,0.06
8,A16C G35A G40U G44A,0.03
9,C15A G35A C42G,0.01
10,C15A G33C G36C,0.03
11,C15G A25U A39U,0.05
12,A16G C31G C46A,0.02
13,C15G C31U U38C G44A,0
14,C15U A39G U43G C45U,0.07
15,A16C G27A G44A,0.08
16,C15U G30U G35C,0.02
17,C15G G17A C31A,0.01
18,A16G G30A C42A,0.02
19,A16G G21U U38A,0.15
20,C15U G33U C46A,0.04
21,C15A G21A U34A C46G,0.08
22,C15G A16C G17A G35U A39G G40U,0.01
23,C15G C31U U32C,0.01
24,A16G C18U A25G U28C,0.01

row,Variant,self-cleavage
1,A16G A25U U38A,0.12
2,A16C G17A C37U U38G,0.04
3,A16G G21U G29U C31G,0.05
4,C15A U38G C42G,0.03
5,C15U G22C G27C C31A,0.06
6,A16G C23A U32C G40U,0.03
7,C15A G22A C23U A26G G30C A39C,0.01
8,C15G G17U G19U A26C C46U,0
9,C15A G33U U34A,0.07
10,C15A G33U U34C,0.05
11,A16C C37G U38C G44A C45A,0.02
12,A16C G19A A26G C31A C37G,0.01
13,C15U G27A U38A,0.28
14,C15U G22A C46U,0.75
15,C15U G17A A41C C42U C46G,0.01
16,C15U A39U U43C,0.02
17,A16G U28G G36A A39U U43A G44A,0.27
18,A16C U28C U43C G44A,0.03
19,C15G U20G G36A,0
20,C15G G30U C42A C45G,0.02
21,C15A G21C C31G,0.06
22,C15A U34A A39U,0.14
23,C15G A16C C18G A26G G33C C37U,0.01
24,C15U U32A G36A,0.03

row,Variant,self-cleavage
1,C15G A24G C37G,0.02
2,C15U A16U A26U,0.07
3,A16G G27C G29U,0.59
4,C15G G29C C42A,0
5,A16G A41G G44A,0.01
6,C15U C18U C46U,0.13
7,C15A U34A C45U,0.21
8,A16G G17U A24G C31U C45U,0.03
9,C15A G17C G36C G40C A41U C46A,0
10,A16C C18U G40A,0.01
11,C15U C23A A25C U32A C46A,0.03
12,A16G G22A A26G,0.08
13,A16C C31U U38C,0.04
14,A16C G17C A26C,0.18
15,C15G C31G C37U,0.02
16,C15G G40U A41G,0.02
17,C15U C18U C37A,0.05
18,C15A G19U U38C,0.06
19,C15U C23U U28A,0.43
20,C15U C23U G44C,0.37
21,A16G C31U G35C,0.01
22,A16C U38G G40U U43C,0.04
23,C15A G29U U43A,0.08
24,A16G C18A A39C,0.02

row,Variant,self-cleavage
1,C15A G21A A25C A39U,0.06
2,C15U U28G G35U U38C U43A C46A,0.01
3,C15U G22U C23U A25U U34C G35C,0.02
4,C15U C18A U20A A25G G30C,0.17
5,C15G G19C U28G G29C,0.02
6,C15U C31G A39G,0.02
7,C15G U20A G22U U28C G35A,0.04
8,A16G G40U C42U,0.13
9,A16C U20G C37U C42A,0.13
10,A16C G19A U34A,0.03
11,C15A G17C U32G,0.02
12,C15A G33A C37A U38A,0.03
13,C15G G17A A39U,0.03
14,A16G U20C A26G G30A,0.15
15,C15G A25C U34A C37U C42A,0.01
16,A16C C18U G33U,0.07
17,A16G G17C G36C U43C G44U,0.02
18,A16C C18U G44C,0.02
19,C15U G36U G40C C45U,0.15
20,C15G G29U G40A,0.07
21,C15A G21U G44A,0
22,C15U G29U G44U,0.14
23,C15U U20C G21C,1.85
24,C15G G30C U32G,0

row,Variant,self-cleavage
1,C15U G19U U38G,0.1
2,A16G U20G C45A,0.05
3,A16C C18A A24U G33A,0.16
4,C15A G19C U20G G30U,0.05
5,C15U G27U G30A C42U,0.04
6,C15U G17C U20C G44A,0.01
7,C15U G27U C37A G44U,0.1
8,C15U G17C G21A,0.08
9,A16G G30A C37U A39U,0.06
10,A16G C23G G40U,0
11,C15U G21U U32A,0.03
12,C15G A16C U34C,0.14
13,C15G U32A C46G,0.02
14,A16G G22A U28G,0.92
15,C15U U20A A25C G35C,0.09
16,C15G G22U C37A C46G,0.01
17,C15U G22C U32C C46U,0.04
18,C15A U32G C46A,0.02
19,A16C C18A C23A G33C C46A,0.01
20,A16C G33C G40U,0.01
21,C15G G17A G19C G22U G33U,0.1
22,C15U A24U G36U,0.04
23,C15G A16G G17U U28A G35A,0.02
24,A16C G22A A25C C37U,0.06

row,Variant,self-cleavage
1,C15G A24C C37G C46A,0.03
2,A16C A24C U34C A41U,0.1
3,C15G C18U C46A,0.23
4,A16C U28G C37G,0
5,A16G G29U C45U,0.16
6,C15A G27U G36A,0.05
7,A16G A26G G35A,0.03
8,C15G U20G A39U,0.01
9,C15U A24G G40U,0.02
10,C15G G19A A39G,0.01
11,C15A G29U C45A,0
12,C15U A26G G27U G33C,0.03
13,C15U U20C A26C G33U,0.36
14,C15A G17C G19U,0.15
15,C15G G17C G21C C42U,0.01
16,C15G G40U A41U U43C,0.08
17,C15A G17U C31A,0.11
18,A16G G22U G29A C42A C46A,0.01
19,C15U G36U G44U,0.03
20,C15A G36U A41C C46G,0.03
21,A16G G29C G30C G35A,0.02
22,A16G A24C G29U C37A,0.04
23,A16C C18U G27C,0.14
24,A16G G29A U32A,0.05

row,Variant,self-cleavage
1,C15U G21U G40A,0.14
2,A16G G30U G36U,0.04
3,C15U C18U A24U G27C A41C,0.13
4,C15A G22C G27U G36A C46G,0.06
5,A16C C37U A41C,0.05
6,A16G U20C G27U G36U,0.02
7,C15G U34A G35C U38A,0.07
8,A16C G21A U43C,0.02
9,A16C C18A G29A C37A,0.06
10,C15G A16G U32A,0.2
11,C15G C23G G40A,0
12,C15U U38C U43A,0.03
13,A16G G33U C45G,0.08
14,A16G C18A G27C G36C,0.02
15,C15A G33U G44C,0.06
16,A16C G17A A24U C31G G33C G40U,0.07
17,A16C G21U A26C,0.02
18,A16G C18U G35C G40A U43C,0.01
19,A16G U32G U34C,0.01
20,C15U G35A C42G,0.03
21,C15U G19U A41C,0.03
22,A16C U34A C37A A39G,0.04
23,A16C U20A G36U U43C,0
